Source: PubChem BioAssay AID1963420 (Molecular Pharmacology Branch, DTP, NCI, 2024)
Not every entry of the source has a single result; some have several. They are shown here; other results are not. An entry can have further records. The records of an entry repeat one measurement in other runs, samples, wells, individuals or studies. A date in brackets names the month of the test. Signs of the kind (2×) say how often a value occurs here.

System: 494315-158-R-J1-PDC complex spheroid growth, percent test/control
Experiment: Anticancer human tumor 494315-158-R-J1-PDC patient-derived soft tissue sarcoma cell line growth inhibition [Asc]
Conditions: for viability, T/C: stronger effect = lower value
Procedure: Multicellular complex tumor spheroid response to apoptosis pathway targeting inhibitors Alrizomadlin, Pelcitoclax, and Dasminapant in combination with a variety of drugs and investigational agents in selected tumor cell lines
The MDM2 inhibitor alrizomadlin, the Bcl-2/Bcl-xL inhibitor pelcitoclax, and the IAPs inhibitor dasminapant were evaluated both individually and in combination with standard of care and investigational anticancer small molecules within a complex spheroid model of solid tumors. . Complex spheroids include a stromal component modeled by human endothelial cells (HUVEC) and fibroblasts modeled by human mesenchymal stem cells (MSCs). The concentration ranges selected for each drug and investigational agent were based upon clinically achievable concentrations if the clinical Cmax of the agent was known.
Compounds. The drugs and investigational agents: alrizomadlin (APG-115; NSC831270), pelcitoclax (APG-1252; NSC835773), dasminapant (APG-1387;NSC834197), TAK-243 (NSC785004), copanlisib (NSC809693), olaparib (NSC753686), talazoparib (NSC767125), cobimetinib (NSC 768068), eltanexor (KPT-8602, NSC 794443), abemaciclib (NSC 768073), sotorasib (NSC818433), adagrasib (NSC 831453), MRTX-1133 (NSC 836407), Iadademestat (ORY1001, NSC 806812), and RMC-4630 (NSC839698), were obtained from the NCI Developmental Therapeutics Program Chemical Repository. The FDA-approved anticancer drug set is available from the Developmental Therapeutics Program at https://dtp.cancer.gov/organization/dscb/obtaining/available plates.htm. […] The stock solutions were prepared in dimethyl sulfoxide (DMSO, Sigma-Aldrich, St. Louis, MO, cat. D2650) at 800-fold the tested concentration and stored at -70 degrees C prior to their use. All drugs and investigational agents were tested over a range starting from a high concentration at or near the clinical Cmax and decreasing in half-log increments. If the clinical Cmax for an agent had not been determined, the highest concentration tested was 10 microM.
The patient-derived cancer (PDC) cell lines include five colon adenocarcinomas: 186277-243-T-J2-PDC, 616215-338-R-J1-PDC, 439559-082-T-J2-PDC, 463943-066-T-J2-PDC, and 519858-162-T-J1-PDC; three pancreatic carcinomas: 323965-272-R-J2-PDC, 521955-158-R6-J3-PDC, and 521955-158-R2-J5-PDC; two uterine sarcomas: 327498-152-R-J2-PDC and 993429-296-R-J1-PDC; two rhabdomyosarcomas: 755483-174-R-J1-PDC and 772245-204-R-J1-PDC; two soft tissue sarcomas: 126254-015-R-J1-PDC and 494315-158-R-J1-PDC; two malignant fibrous histiocytomas: 317291-083-R-J1-PDC and 596521-263-R-J1-PDC; two breast carcinomas: 171881-019-R-J1-PDC and 885512-296-R-J2-PDC; and one ovarian carcinoma: 6556581-035-R-J-PDC were obtained from the NCI PDMR, (https://pdmr.cancer.gov). The established cell lines HSSY-2 synovial sarcoma (RRID:CVCL 8719), SYO-1 synovial sarcoma (RRID:CVCL_7146), MPNST malignant peripheral neural sheath tumor were obtained from the Sloan Kettering Institute. The following established cell lines were purchased from the American Type Culture Collection (ATCC, Manassas, VA), Sor the received from the NCI repository:, PANC-1 pancreatic carcinoma (CRL-1469, RRID:CVCL_0480), OVCAR-5 ovarian carcinoma (RRID:CVCL_1628), OVCAR-8 ovarian carcinoma (RRID:CVCL_1629), , MCF-7 breast carcinoma (CRL-12584, RRID:CVCL_0031), MDA-MB-231 breast carcinoma (CRL-12532, RRID:CVCL_0062), NCI-H1876 small cell lung carcinoma (CRL-5902, RRID:CVCL_1503), NCI-H510A small cell lung carcinoma (HTB-184, RRID:CVCL_1565), NCI-H1417 (CRL-5869, RRID:CVCL_1469), and NCI-H196 small cell lung carcinoma (CRL-5823, RRID:CVCL_1509). Dr. Peter Houghton (Greehey Children's Cancer Research Institute, University of Texas Health Science Center, San Antonio, TX) provided Rh-18 rhabdomyosarcoma (RRID:CVCL_1659). Pooled donor human umbilical vein endothelial cells (HUVEC, Lonza, cat. CC-2519) and human mesenchymal stem cells (hMSC, Lonza, cat. PT-2501) were purchased from Lonza (Walkersville, MD).
Cell Culture. […]
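Also: compound exposure lasted seven days after spheroids formed for three days.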

Structure (SMILES)	viability, T/C (compound alone 0.03 µM)	viability, T/C (compound alone 0.0949 µM)	viability, T/C (compound alone 0.3 µM)	viability, T/C (compound alone 0.949 µM)	viability, T/C (compound alone 3 µM)	IC50 (compound alone, run of 10/03/2022)
CCN1C(C(=O)NC23CCC(C(=O)O)(CC2)CC3)C(c2cccc(Cl)c2F)C2(C(=O)Nc3cc(Cl)ccc32)C12CCCCC2 (stereo unspecified)	96.1, 102, 91.6, 105, 106 (2×), 91.5, 118, 101, 92.7, 85.8, 91.7, 84.7, 89.1% [2022-09] and 104% [2022-10]	93, 94.8, 94.3, 112, 109, 93.5, 98.9, 91.6, 94.2, 94.7, 92.7, 84.9, 84.8, 95% [2022-09] and 98.5% [2022-10]	106, 88.2, 114, 109, 103, 96.2, 98.2, 108, 89.2, 102, 91, 96.5, 101, 80.1% [2022-09] and 102% [2022-10]	101, 80.5, 98.3, 102, 118, 99.9, 95.5, 91.2, 85.9, 100, 82.8, 92.9, 90.3, 81.4% [2022-09] and 112% [2022-10]	88.2, 106, 87.7, 86.5, 91.4, 100, 87.8, 87.2, 90.1, 85.9, 82.8, 87.5, 80, 78.3% [2022-09] and 101% [2022-10]	
CNC(C)C(=O)NC1CN(S(=O)(=O)c2cccc(S(=O)(=O)N3CCC4CCC(C(=O)NC(c5ccccc5)c5ccccc5)N4C(=O)C(NC(=O)C(C)NC)C3)c2)CCC2CCC(C(=O)NC(c3ccccc3)c3ccccc3)N2C1=O (stereo unspecified)						118, 92.4, 335, 121, 158, 75.8, 145, 264, 148, 168, 138, 92.9 nM
